{"source": "PubChem BioAssay (NCATS)", "key": {"[1]": {"biological_target": "Catechol O-methyltransferase (Homo sapiens) (UniProt P21964)", "sequence (P21964 whole entry, looked up)": "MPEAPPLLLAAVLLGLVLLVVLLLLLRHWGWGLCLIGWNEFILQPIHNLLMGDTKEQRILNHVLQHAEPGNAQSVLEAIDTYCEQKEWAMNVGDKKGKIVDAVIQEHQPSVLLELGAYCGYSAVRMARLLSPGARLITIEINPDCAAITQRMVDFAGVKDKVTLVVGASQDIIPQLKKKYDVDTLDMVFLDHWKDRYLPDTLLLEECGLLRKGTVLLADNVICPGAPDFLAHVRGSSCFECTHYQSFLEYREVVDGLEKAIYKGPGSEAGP", "test": "Confirmatory Screen for Target Class Profiling of Small Molecule Inhibitors of Methyltransferases (AID 1745852);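 as to all read-outs here: inhibitor potency for blocking SAH production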", "conditions": "MTase-Glo luminescence, SAH detection, recombinant enzyme; measured here: COMT inhibition potency"}, "[2]": {"biological_target": "Histamine N-methyltransferase (Homo sapiens) (UniProt P50135)", "sequence (P50135 whole entry, looked up)": "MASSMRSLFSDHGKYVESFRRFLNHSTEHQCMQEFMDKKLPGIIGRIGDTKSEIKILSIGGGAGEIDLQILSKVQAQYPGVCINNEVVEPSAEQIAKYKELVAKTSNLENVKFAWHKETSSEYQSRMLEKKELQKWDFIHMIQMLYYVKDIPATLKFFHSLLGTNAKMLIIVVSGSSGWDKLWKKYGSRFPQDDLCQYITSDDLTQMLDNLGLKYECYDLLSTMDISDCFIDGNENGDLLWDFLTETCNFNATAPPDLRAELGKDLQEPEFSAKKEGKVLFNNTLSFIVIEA", "test": "Confirmatory Screen for Target Class Profiling of Small Molecule Inhibitors of Methyltransferases (AID 1745852)", "conditions": "MTase-Glo luminescence, SAH detection, recombinant enzyme; measured here: HNMT inhibition potency"}, "[3]": {"biological_target": "Nicotinamide N-methyltransferase (Homo sapiens) (UniProt P40261)", "sequence (P40261 whole entry, looked up)": "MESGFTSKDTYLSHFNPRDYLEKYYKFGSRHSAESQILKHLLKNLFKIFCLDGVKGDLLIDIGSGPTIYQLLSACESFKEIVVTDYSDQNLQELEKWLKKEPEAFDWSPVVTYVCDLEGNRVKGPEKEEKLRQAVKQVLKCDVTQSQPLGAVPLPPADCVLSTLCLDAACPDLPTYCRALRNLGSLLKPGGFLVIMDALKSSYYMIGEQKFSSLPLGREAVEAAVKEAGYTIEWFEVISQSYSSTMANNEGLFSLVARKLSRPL", "test": "Confirmatory Screen for Target Class Profiling of Small Molecule Inhibitors of Methyltransferases (AID 1745852)", "conditions": "MTase-Glo luminescence, SAH detection, recombinant enzyme; measured here: NNMT inhibition potency"}, "[4]": {"biological_target": "Phenylethanolamine N-methyltransferase (Homo sapiens) (UniProt P11086)", "sequence (P11086 whole entry, looked up)": "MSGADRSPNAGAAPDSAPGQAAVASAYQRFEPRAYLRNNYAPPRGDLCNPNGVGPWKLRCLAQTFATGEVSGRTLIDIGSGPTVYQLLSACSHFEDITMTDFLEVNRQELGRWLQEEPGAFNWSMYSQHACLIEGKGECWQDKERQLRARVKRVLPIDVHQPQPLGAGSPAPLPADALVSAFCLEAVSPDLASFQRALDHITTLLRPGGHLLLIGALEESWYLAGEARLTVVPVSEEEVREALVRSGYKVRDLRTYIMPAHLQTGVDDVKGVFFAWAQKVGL", "test": "Confirmatory Screen for Target Class Profiling of Small Molecule Inhibitors of Methyltransferases (AID 1745852)", "conditions": "MTase-Glo luminescence, SAH detection, recombinant enzyme; measured here: PNMT inhibition potency"}, "[5]": {"test": "qHTS drug screen for cell cycle checkpoint inhibitors in PARPi-resistant BRCA-mutant ovarian cancer cell lines. (AID 1963452)", "conditions": "PEO1/OlaR viability, CellTiter-Glo luminescence, 96 h", "procedure,_shortened": "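PEO1, PEO4 and PEO1/OlaR ovarian cancer cells, 600 per well, exposed 96 h at 37C to a dilution series. Viability read by CellTiter-Glo luminescence, normalized to DMSO and empty wells; activity summarized as Z-AUC.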"}, "[6]": {"test": "qHTS for identification of novel therapeutic agents for treatment of microphthalmiaassociated transcription factor (MiT) renal cell carcinoma (RCC) (AID 1963991)", "conditions": "CellTiter-Glo, 48 h; for z-score: stronger effect = lower value", "procedure,_shortened": "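UOK109/UOK124/UOK145 (TFE3 fusions, three partners); 500 cells/well; MIPE v4.0, 1912 cpds, 11 conc.; 48 h, 37 C; CellTiter-Glo, 15 min RT; lum. Norm.: DMSO 100%, empty 0%.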"}, "[7]": {"test": "qHTS Validation Assay to Find Inhibitors of Chronic Active B-Cell Receptor Signaling (AID 485345)", "conditions": "ABC-DLBCL cells, chronic BCR signaling reporter; measured here: CBR control luciferase (viability counter)", "procedure,_shortened": "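Read-out: ratio of filter-corrected green (IkappaBalpha fusion) to red (native) luciferase signal in doxycycline-induced TMD8 cells after 4 h at 37C. Titration spanned 46 uM–3 nM; Data were normalised to basal cells and 10 uM MG-132 wells.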"}, "[8]": {"test": "Nrf2 qHTS screen for inhibitors: Validation (AID 493153)", "conditions": "A549 ARE-Fluc reporter, 18-24 h; AC50: CellTiter-Fluor fluorescence read, measured here: cytotoxicity CellTiter-Fluor AC50; viability change: measured here: cytotoxicity max response", "procedure,_shortened": "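A549 ARE_Fluc, 5% FBS OPTI-MEM; cpd titration, 18-24 h, 37°C/5% CO2. Read 1: CellTiter-Fluor (Ex 405/Em 525), cytotox. Read 2: luciferase lum, Nrf2 activity.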"}, "[9]": {"conditions": "measured here: PEO1 parental viability"}, "[10]": {"conditions": "TFE3-RCC viability, measured here: UOK124 cell viability"}, "[11]": {"conditions": "TFE3-RCC viability, measured here: UOK145 cell viability"}}, "note": "Some of the results follow. Further columns of the screen follow, without active or inactive calls. For some assays here: Compounds called inactive in the main read-out are mostly missing here. Words in brackets tell the shape of the fitted curve; partial curves, single points and poor fits give uncertain potencies. Tags tell the direction and shape of the fitted curve."}
{"smiles": "CC1(COc2ccc3c(c2)ncn3-c2ccc3cccc(N4CCC(N)CC4)c3n2)COC1", "values": [{"measurement": "IC50", "setting": "[1]", "result": "21.5 µM [falling, partial curve]"}, {"measurement": "IC50", "setting": "[2]", "result": "15.2 µM [falling, partial curve]"}, {"measurement": "IC50", "setting": "[3]", "result": "27.1 µM [falling, partial curve, poor fit]"}, {"measurement": "IC50", "setting": "[4]", "result": "24.1 µM [falling, partial curve]"}, {"measurement": "AC50", "setting": "[5]; [9]", "result": "13.8 µM [falling, partial curve]"}, {"measurement": "AC50", "setting": "[5]; measured here: PEO4 viability", "result": "12.3 µM [falling, partial curve]"}, {"measurement": "z-score", "setting": "[6]; TFE3-RCC UOK109 viability, measured here: UOK109 Z-AUC", "result": -2.6}, {"measurement": "z-score", "setting": "[6]; TFE3-RCC viability, measured here: UOK124 Z-AUC", "result": -0.544}, {"measurement": "AC50", "setting": "[6]; [10]", "result": "16.6 µM [falling, partial curve]"}, {"measurement": "z-score", "setting": "[6]; TFE3-RCC viability, measured here: UOK145 Z-AUC", "result": -3.76}, {"measurement": "AC50", "setting": "[6]; [11]", "result": "0.469 µM [falling, partial curve]"}]}
{"smiles": "O=C(NCc1ccc2c(c1)OCO2)c1sc(=S)n2c1[nH]c(=O)c1ccccc12", "values": [{"measurement": "IC50", "setting": "[1]", "result": "27.1 µM [falling, partial curve]"}, {"measurement": "IC50", "setting": "[2]", "result": "34.1 µM [falling, single point]"}, {"measurement": "IC50", "setting": "[4]", "result": "27.1 µM [falling, partial curve]"}]}
{"smiles": "CC(C)c1nccn1CCCNc1nc(-c2ccncc2)nc2c1cnn2C", "values": [{"measurement": "IC50", "setting": "[1]", "result": "24.1 µM [falling, partial curve, poor fit]"}, {"measurement": "IC50", "setting": "[2]", "result": "13.6 µM [falling, partial curve]"}, {"measurement": "IC50", "setting": "[4]", "result": "21.5 µM [falling, partial curve]"}]}
{"smiles": "CC(Oc1cc(-n2cnc3ccc(CN4CCN(C)CC4)cc32)sc1C(N)=O)c1ccccc1C(F)(F)F", "note": "(centres undefined)", "values": [{"measurement": "IC50", "setting": "[1]", "result": "21.5 µM [falling, partial curve]"}, {"measurement": "IC50", "setting": "[2]", "result": "24.1 µM [falling, partial curve]"}, {"measurement": "IC50", "setting": "[4]", "result": "21.5 µM [falling, partial curve]"}]}
{"smiles": "Cc1ccc(CNC(=O)c2ccc3c(=O)[nH]c4c(C(=O)NC(C)C)sc(=S)n4c3c2)cc1", "values": [{"measurement": "IC50", "setting": "[1]", "result": "24.1 µM [falling, single point]"}, {"measurement": "IC50", "setting": "[3]", "result": "21.5 µM [falling, partial curve]"}]}
{"smiles": "Nc1ccc(-c2cnc(N)c(-c3ccc(Cl)cc3)c2)cn1", "values": [{"measurement": "IC50", "setting": "[1]", "result": "19.2 µM [falling, partial curve]"}, {"measurement": "IC50", "setting": "[3]", "result": "24.1 µM [falling, partial curve]"}]}
{"smiles": "O=C(/C=C/C#Cc1cccc(NS(=O)(=O)c2ccccc2)c1)NO", "values": [{"measurement": "IC50", "setting": "[1]", "result": "21.7 µM [rising, partial curve]"}, {"measurement": "AC50", "setting": "[5]; [9]", "result": "6.01 µM [falling, partial curve, poor fit]"}, {"measurement": "AC50", "setting": "[5]; measured here: PEO4 viability", "result": "8.48 µM [falling, partial curve]"}]}
{"smiles": "Brc1c(Br)c(Br)c2[nH]cnc2c1Br", "values": [{"measurement": "AC50", "setting": "[7]", "result": "7.31 µM [falling, partial curve]"}, {"measurement": "viability change", "setting": "[8]", "result": 0.0472, "unit": "%"}, {"measurement": "IC50", "setting": "[1]", "result": "21.7 µM [falling, partial curve, poor fit]"}, {"measurement": "IC50", "setting": "[3]", "result": "27.3 µM [falling, partial curve]"}, {"measurement": "IC50", "setting": "[4]", "result": "24.3 µM [falling, partial curve]"}]}
{"smiles": "N.N.N.N.N.N.N.N.N.N.N.N.N.N.O.O.[Ru+4].[Ru+5].[Ru+5]", "values": [{"measurement": "AC50", "setting": "[7]", "result": "23.1 µM [rising, single point]"}, {"measurement": "AC50", "setting": "[8]", "result": "13 µM [falling, partial curve]"}, {"measurement": "viability change", "setting": "[8]", "result": -56.7, "unit": "%"}, {"measurement": "IC50", "setting": "[1]", "result": "24.3 µM [falling, partial curve, poor fit]"}, {"measurement": "IC50", "setting": "[3]", "result": "30.6 µM [falling, partial curve, poor fit]"}]}
{"smiles": "CCc1nc(C(N)=O)c(Nc2ccc(N3CCC(N4CCN(C)CC4)CC3)c(OC)c2)nc1NC1CCOCC1", "values": [{"measurement": "IC50", "setting": "[1]", "result": "14.9 µM [falling, partial curve]"}, {"measurement": "IC50", "setting": "[2]", "result": "16.8 µM [falling, partial curve]"}, {"measurement": "IC50", "setting": "[4]", "result": "11.9 µM [falling, partial curve]"}, {"measurement": "AC50", "setting": "[5]; measured here: PEO4 viability", "result": "27.5 µM [falling, partial curve, poor fit]"}]}
{"smiles": "CC(=O)OC1CC(=O)C2(C)C3CC4=C(OC(C)CC4=O)OC3(C)CCC2C1(C)C", "note": "(centres undefined)", "values": [{"measurement": "IC50", "setting": "[1]", "result": "10.5 µM [falling, partial curve]"}, {"measurement": "IC50", "setting": "[3]", "result": "0.937 µM [falling, full curve]"}]}
{"smiles": "CC(C)(O)C(=O)N1CCN(c2ccc(C(F)(F)F)c(C3=C(c4c[nH]c5ccccc45)C(=O)NC3=O)c2)CC1", "values": [{"measurement": "IC50", "setting": "[1]", "result": "24.1 µM [falling, partial curve]"}, {"measurement": "IC50", "setting": "[3]", "result": "24.1 µM [falling, partial curve]"}, {"measurement": "IC50", "setting": "[4]", "result": "24.1 µM [falling, partial curve]"}]}
{"smiles": "CNC(=O)CN1CCC(Oc2cc3c(Nc4cccc(Cl)c4F)ncnc3cc2OC)CC1", "values": [{"measurement": "IC50", "setting": "[1]", "result": "24.1 µM [falling, single point]"}, {"measurement": "IC50", "setting": "[2]", "result": "30.4 µM [falling, single point]"}, {"measurement": "IC50", "setting": "[4]", "result": "24.1 µM [falling, partial curve]"}, {"measurement": "AC50", "setting": "[5]; [9]", "result": "11 µM [falling, partial curve]"}, {"measurement": "AC50", "setting": "[5]; measured here: PEO4 viability", "result": "1.95 µM [falling, partial curve, poor fit]"}, {"measurement": "AC50", "setting": "[6]; [10]", "result": "18.7 µM [falling, partial curve]"}, {"measurement": "AC50", "setting": "[6]; [11]", "result": "0.0209 µM [falling, full curve]"}]}
{"smiles": "CCCCc1nc2cc(/C=C/C(=O)NO)ccc2n1CCN(CC)CC", "values": [{"measurement": "IC50", "setting": "[1]", "result": "19.3 µM [falling, partial curve, poor fit]"}, {"measurement": "AC50", "setting": "[5]; [9]", "result": "3.09 µM [falling, full curve]"}, {"measurement": "AC50", "setting": "[5]; measured here: PEO4 viability", "result": "1.95 µM [falling, full curve]"}]}
{"smiles": "CCCCN(C)C(=O)c1c(C)sc2ccn(CCC)c(=O)c12", "values": [{"measurement": "IC50", "setting": "[1]", "result": "9.61 µM [falling, full curve]"}, {"measurement": "IC50", "setting": "[3]", "result": "19.2 µM [falling, partial curve, poor fit]"}, {"measurement": "IC50", "setting": "[4]", "result": "2.41 µM [falling, full curve]"}]}
